Results as given in PubChem BioAssay (NCATS).
This list was built around the results that the source calls inconclusive (neither active nor inactive); the mix of calls is not that of the screen. The source made the active and inactive calls. Calls come from the whole dose curve; as a rule, active = well fitted curve in either direction with a large enough effect (not every such curve was filed as active); inconclusive = small, poorly fitted or top-dose-only effect, or another doubt; inactive = flat fitted curve, though single readings scatter.

Experiment: NFAT Signaling Pathway (AID 444);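 note: carbachol stimulus at about its EC50 of 1 µM final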
Details: Jurkat NFAT-bla M1, carbachol, beta-lactamase ratio, 5 h; at 17.2 µM (top of the series) unless noted
In short: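 Jurkat cells with NFAT-driven β-lactamase reporter and co-expressed M1 receptor, stimulated with carbachol (final 1 uM, ~EC50), compound titration, 5 h at 37 °C. CCF4 loaded 1 h at RT; 460/530 nm ratio gave %activity and AC50.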
% is set by controls: 0 for no effect and ±100 for the full control effect.

Activity change, negative = inhibition, active:
CCOc1ccccc1N1CCN(c2nc3ccccc3nc2C(C#N)C(=O)OC)CC1 (stereo not given) -106%
Cc1nc2c(o1)CCc1ccccc1C2N1CCN(C)CC1 (stereo not given) -82.4%

Activity change, negative = inhibition, inactive:
Cc1cc(C)nc(N(C#N)CN2C(=O)c3ccccc3C2=O)n1 -1.49%
CO[C@@H](NC(N)=O)C(=O)O 1.38% [at 7.69 µM]
O=c1oc2c(CN3CCCCC3)c(O)ccc2c2c1CCCCC2 -25.5%
COC(=O)c1[nH]c(C)c(/C(O)=C2\C(=O)C(=O)N(CCN3CCOCC3)C2c2cccnc2)c1C (stereo not given) -7.81%
C=CCSC[C@@H]1Nc2cc(Cl)c(S(N)(=O)=O)cc2S(=O)(=O)N1 -2.73%
O=C(O)CC(CC(=O)O)n1cccc1 8.97% [at 7.69 µM]
C=CCc1cccc(/C=N/c2ncn[nH]2)c1O -19.8%
c1ccc(CO[C@H]2NCCN2Cc2ccccc2)cc1 9.93% [at 7.69 µM]
O=C1[C@@H]2[C@H](C(=O)N1O)[C@H]1C=C[C@@H]2C1 -15.3%
COc1ccc(Oc2ncc3nc(-c4ccccc4)c(=O)n(Cc4cccs4)c3n2)cc1 -1.01% [at 7.69 µM]
COc1ccc(C2CC(=O)c3sc(N)nc3C2)cc1 (stereo not given) 5.45%
Cc1nn(CCO)c2c1C(=O)CCC2 -9.31%
N#Cc1cccc(-n2c(-c3ccccc3)nnc2-c2ccccc2)c1C#N 5.67%
COc1ccccc1C1/C(=C(\O)c2ccc3c(c2)OCCO3)C(=O)C(=O)N1CCCN(C)C (stereo not given) -5.11%
CCOc1ccc(NC(=O)c2nn(C)cc2Br)cc1 4.54%
O=C(C(c1ccccc1)N1CCOCC1)N1CCOCC1 (stereo not given) 7.74%
C=CCn1c(N)c(C(=O)OC(C)(C)C)c2nc3ccccc3nc21 3.64%

Activity change, negative = inhibition, inconclusive:
C=C1c2cc(OC)ccc2NC(=O)N1CC -34% [inhibitor]
CCN1CC2=C(OC(N)=C(C#N)C2c2ccccc2)/C(=C\c2ccccc2)C1 (stereo not given) -63.2% [inhibitor]
Cc1cccc(C(=O)O)c1C[C@H]1NCC[C@H]2c3ccccc3N[C@@H]12 -57.9% [inhibitor] [at 7.69 µM]
Cc1ccc(SCc2c(C#N)c3ccccc3n2C)cc1 -44.3% [inhibitor]
Cc1noc(C)c1C(=O)N1CCC2(CCN(Cc3ccncc3)CC2)CC1 -30.2% [inhibitor] [at 7.69 µM]
COc1ccc(NCc2c(O)ccc3ccccc23)cc1 -55.7% [inhibitor] [at 7.69 µM]
Cn1cccc1C(=O)N1CCC2(CCCN(c3ccccn3)C2)CC1 -44.9% [inhibitor] [at 7.69 µM]
Oc1ccc(Br)cc1-c1cc(-c2ccccc2F)[nH]n1 -52.5% [inhibitor]
C=CCNC(=O)C(C#N)c1nc2ccccc2nc1N1CCCCCC1 (stereo not given) -69.8% [inhibitor]
Cc1ccc(CNc2oc(COc3ccccc3Cl)nc2C#N)cc1 -33.9% [inhibitor]
CN1C2C=C3C(C#N)=C(N)C(C#N)(C#N)[C@@H](c4ccsc4)[C@@H]3C1CC2 (stereo not given in full) -48.8% [inhibitor]
CC(C)OCCCn1c(=N)c(C(N)=S)cc2c(=O)n3ccccc3nc21 -46.5% [inhibitor]
COc1ccc(CCn2c(=N)c(C(=O)NCc3ccco3)cc3c(=O)n4ccccc4nc32)cc1 -97.6% [inhibitor]
COc1ccc(OC)c2c(N)c(C#N)c(C(F)(F)C(F)(F)F)nc12 47.8% [activator]
Cc1cccc(OCCN2CSC(=S)N(C)C2)c1 -116% [inhibitor]
CCCCNC(=O)C(C#N)c1nc2ccccc2nc1N1CCN(Cc2ccc3c(c2)OCO3)CC1 (stereo not given) -64.8% [inhibitor]
N#CCSc1nc2sc3c(c2c(=O)n1C1CCCCC1)CCCC3 -50.3% [inhibitor]
O=C(c1csnn1)N1CCC2(CCN(Cc3cc(C(F)(F)F)cc(C(F)(F)F)c3)CC2)CC1 -32.1% [inhibitor] [at 7.69 µM]
CCSc1nnc(NC(=O)C(C(F)(F)F)C(F)(F)F)s1 -81.9% [inhibitor]
Cc1ccc(S(=O)(=O)c2cc3c(=O)n4ccccc4nc3n(C)c2=N)cc1 32.8% [activator]
COc1ccccc1CN1CCCC2(CCN(C(=O)c3csnn3)CC2)C1 -71% [inhibitor] [at 7.69 µM]
